Measurements: PMC12136788
The other results are listed elsewhere or left out.

T1: UNK ZnF1-3 (human, UniProt Q9C0B0 31-174)
T1 sequence: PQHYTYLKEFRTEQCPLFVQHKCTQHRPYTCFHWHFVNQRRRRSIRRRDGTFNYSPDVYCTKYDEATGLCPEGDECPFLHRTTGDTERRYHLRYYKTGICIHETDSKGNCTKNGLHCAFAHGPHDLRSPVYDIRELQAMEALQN

B1: chr3:20017139:20017140:+_ENSG00000144566_ENST00000273047|hu_hu|motif|central (ssRNA)
RNA: GGGAGUUCUACAGUCCGACGAUCGAUAUCAUAUACAACUAUGGCUGCUUGUGCUCCUCUGUAGUACAUUGGUGCGGGGCGGUGGUAUCGUUCUUGACCAGCUGUAUCCCAUAUUUCAAACUUUACUGUAGUGUCAUCAAGACACAACAGAGGAUUGAGCAUCA
B2: chr4:76721835:76721836:+_ENSG00000138768_ENST00000264904|hu_mus|hu_hu_hu_mus_True|28_78 (ssRNA)
RNA: GGGAGUUCUACAGUCCGACGAUCGUUUGGCUGGGGUUUCUGAGACGCUCUGGAAUAAACUCAUGUUUUGCUAAUAAAUCCUAGUUUCUCUAUGAAAUUCUCUUUGCAAUCCUCUUCCUCUAUUAGUUGCUUUAGUUUCUCUUUCAACAGAGGAUUGAGCAUCA
B3: chr3:148802587:148802588:-_ENSG00000071794_ENST00000310053|hu_mus|hu_hu_hu_mus_False|58_98 (ssRNA)
RNA: GGGAGUUCUACAGUCCGACGAUCUCCAACAACUUGUCCUCUCAAACUUCCAAAUAAAACCAAAUCUUGCUCUUCAUCACUAGUUAGGAAGUCAUCUGGAGGAAUAAUGUCUUGGAAUUCAAAAUGUGGCAAGAAAGUUGAGUACAACAGAGGAUUGAGCAUCA
B4: 107904762_107904882_6197_3pUTR_ENSMUSG00000034636_ENSMUST00000043616|mouse|control|control (ssRNA)
RNA: GGGAGUUCUACAGUCCGACGAUCACACAGUGAGCUUGAGACCAGCUUGGGCUACAAAAGAGCCUGUCUCACAGAACAAAGUCAAACAACCAAAAACUGAGCCAAAUUUACUGUUCCUUAAUUUAUCCCAAUUUGGCACAUUAACAACAGAGGAUUGAGCAUCA
B5: chr2:109737439:109737440:+_ENSMUSG00000027162_ENSMUST00000028583|mus_mus|FALSE|FALSE (ssRNA)
RNA: GGGAGUUCUACAGUCCGACGAUCCAUUUUCUCAAAGCGGGACUCCAUUUCUUCCAAGACUUUUGGUGUGUACCGUACGACUAAUUUAACCUUCCCUUGGGCUGCUUUCAGUAGCUCUACCGCUUUCUCAUGGUGCUCCCCUUCCAACAGAGGAUUGAGCAUCA
B6: chr3:39121231:39121232:+_ENSG00000114742_ENST00000302313|hu_hu|FALSE|FALSE (ssRNA)
RNA: GGGAGUUCUACAGUCCGACGAUCAUUGGUAUCUUUGGUUAAUAUAUGUCUCUUAUCAUUAAGAAUGUGGCACUGAAUAAUACUAGCACCCCCUUUAAUAACCUGGUCAGGUUGUGUACAAAGAGGUGUUAUAGGAUUUGUACACAACAGAGGAUUGAGCAUCA

target: T1, UNK ZnF1-3; assay: nsRBNS (natural sequence RNA bind-n-seq); RBNS binding buffer (assumed for nsRBNS): 25 mM Tris pH 7.5, 150 mM KCl, 3 mM MgCl2, 0.01% Triton X-100, 500 ug/ml BSA, 20 U/ml SUPERase-In, 4 C; UNK is unkempt and MSI1 is Musashi-1; names of the RNAs are library labels; protein concentration not given here; high values mean tight binding

Row | Binder | binding signal [enrichment R]
1 | B1 | 0.882
2 | B2 | 0.495
3 | B3 | 1.03
4 | B4 | 1.01
5 | B5 | 0.63
6 | B6 | 0.37
